# In the supplement of paper PMC8728848:
# The other results are listed elsewhere or left out.
# B1: rCNL (Clitocybe nebularis), B2ZRS9 (protein)
# chain: SITPGTYNITNVAYTNRLIDLTGSNPAENTLIIGHHLNKTPSGYGNQQWTLVQLPHTTIYTMQAVNPQSYVRVRDDNLVDGAALVGSQQPTPVSIESAGNSGQFRIKIPNLGLALTLPSDANSTPIVLGEVDETSTNQLWAFESVSAV
# Legend:
# Experiment in all cases: glycan array binding signal (z-score within array); higher = stronger binding
# Settings in all cases: glycan notation: IUPAC condensed, linker removed
# GlcNAc(b1-3)Gal(b1-4)Glc = molecular target: GlcNAc(b1-3)Gal(b1-4)Glc
# Method in brief: (§1)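 The binding signal is a Z-score computed within each array and averaged over linkers. Arrays of the same protein sequence at different concentrations or buffers were also averaged together. Data originate from 3228 arrays in the Consortium for Functional Glycomics database, kept only where the protein sequence was available.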
# [1] = molecular target: GlcNAc(b1-3)Gal(b1-4)GlcNAc
# Method in brief: as §1
# [2] = molecular target: GlcNAc(b1-3)Gal(b1-4)GlcNAc(b1-2)Man(a1-3)[GlcNAc(b1-3)Gal(b1-4)GlcNAc(b1-2)Man(a1-6)]Man(b1-4)GlcNAc(b1-4)GlcNAc
# Method in brief: as §1
# [3] = molecular target: GlcNAc(b1-3)Gal(b1-4)GlcNAc(b1-2)Man(a1-3)[GlcNAc(b1-3)Gal(b1-4)GlcNAc(b1-2)Man(a1-6)]Man(b1-4)GlcNAc(b1-4)[Fuc(a1-6)]GlcNAc
# Method in brief: as §1
# [4] = molecular target: GlcNAc(b1-3)Gal(b1-4)GlcNAc(b1-2)[GlcNAc(b1-3)Gal(b1-4)GlcNAc(b1-6)]Man(a1-6)[GlcNAc(b1-3)Gal(b1-4)GlcNAc(b1-2)Man(a1-3)]Man(b1-4)GlcNAc(b1-4)GlcNAc
# Method in brief: as §1
# [5] = molecular target: GlcNAc(b1-3)Gal(b1-4)GlcNAc(b1-3)Gal(b1-4)GlcNAc
# Method in brief: as §1
# [6] = molecular target: GlcNAc(b1-3)Gal(b1-4)GlcNAc(b1-3)Gal(b1-4)GlcNAc(b1-2)Man(a1-3)[GlcNAc(b1-3)Gal(b1-4)GlcNAc(b1-3)Gal(b1-4)GlcNAc(b1-2)Man(a1-6)]Man(b1-4)GlcNAc(b1-4)GlcNAc
# Method in brief: as §1
# [7] = molecular target: GlcNAc(b1-3)Gal(b1-4)GlcNAc(b1-3)Gal(b1-4)GlcNAc(b1-2)Man(a1-3)[GlcNAc(b1-3)Gal(b1-4)GlcNAc(b1-3)Gal(b1-4)GlcNAc(b1-2)Man(a1-6)]Man(b1-4)GlcNAc(b1-4)[Fuc(a1-6)]GlcNAc
# Method in brief: as §1
# [8] = molecular target: GlcNAc(b1-3)Gal(b1-4)GlcNAc(b1-3)Gal(b1-4)GlcNAc(b1-2)[GlcNAc(b1-3)Gal(b1-4)GlcNAc(b1-3)Gal(b1-4)GlcNAc(b1-6)]Man(a1-6)[GlcNAc(b1-3)Gal(b1-4)GlcNAc(b1-3)Gal(b1-4)GlcNAc(b1-2)Man(a1-3)]Man(b1-4)GlcNAc(b1-4)[Fuc(a1-6)]GlcNAc
# Method in brief: as §1
# [9] = molecular target: GlcNAc(b1-3)Gal(b1-4)GlcNAc(b1-3)Gal(b1-4)GlcNAc(b1-3)Gal(b1-4)GlcNAc(b1-2)Man(a1-3)[GlcNAc(b1-3)Gal(b1-4)GlcNAc(b1-3)Gal(b1-4)GlcNAc(b1-3)Gal(b1-4)GlcNAc(b1-2)Man(a1-6)]Man(b1-4)GlcNAc(b1-4)GlcNAc
# Method in brief: as §1
# [10] = molecular target: GlcNAc(b1-3)Gal(b1-4)GlcNAc(b1-3)Gal(b1-4)GlcNAc(b1-3)Gal(b1-4)GlcNAc(b1-2)Man(a1-3)[GlcNAc(b1-3)Gal(b1-4)GlcNAc(b1-3)Gal(b1-4)GlcNAc(b1-3)Gal(b1-4)GlcNAc(b1-2)Man(a1-6)]Man(b1-4)GlcNAc(b1-4)[Fuc(a1-6)]GlcNAc
# Method in brief: as §1
# [11] = molecular target: GlcNAc(b1-3)Gal(b1-4)GlcNAc(b1-3)Gal(b1-4)GlcNAc(b1-3)Gal(b1-4)GlcNAc(b1-2)[GlcNAc(b1-3)Gal(b1-4)GlcNAc(b1-3)Gal(b1-4)GlcNAc(b1-3)Gal(b1-4)GlcNAc(b1-6)]Man(a1-6)[GlcNAc(b1-3)Gal(b1-4)GlcNAc(b1-3)Gal(b1-4)GlcNAc(b1-3)Gal(b1-4)GlcNAc(b1-2)Man(a1-3)]Man(b1-4)GlcNAc(b1-4)[Fuc(a1-6)]GlcNAc
# Method in brief: as §1
# [12] = molecular target: GlcNAc(b1-3)Gal(b1-4)GlcNAc(b1-3)Gal(b1-4)GlcNAc(b1-3)Gal(b1-4)GlcNAc(b1-3)Gal(b1-4)GlcNAc(b1-2)Man(a1-3)[GlcNAc(b1-3)Gal(b1-4)GlcNAc(b1-3)Gal(b1-4)GlcNAc(b1-3)Gal(b1-4)GlcNAc(b1-3)Gal(b1-4)GlcNAc(b1-2)Man(a1-6)]Man(b1-4)GlcNAc(b1-4)GlcNAc
# Method in brief: as §1
# [13] = molecular target: GlcNAc(b1-3)Gal(b1-4)GlcNAc(b1-3)Gal(b1-4)GlcNAc(b1-3)Gal(b1-4)GlcNAc(b1-3)Gal(b1-4)GlcNAc(b1-2)Man(a1-3)[GlcNAc(b1-3)Gal(b1-4)GlcNAc(b1-3)Gal(b1-4)GlcNAc(b1-3)Gal(b1-4)GlcNAc(b1-3)Gal(b1-4)GlcNAc(b1-2)Man(a1-6)]Man(b1-4)GlcNAc(b1-4)[Fuc(a1-6)]GlcNAc
# Method in brief: as §1
# [14] = molecular target: GlcNAc(b1-3)Gal(b1-4)GlcNAc(b1-3)Gal(b1-4)GlcNAc(b1-3)Gal(b1-4)GlcNAc(b1-3)Gal(b1-4)GlcNAc(b1-2)[GlcNAc(b1-3)Gal(b1-4)GlcNAc(b1-3)Gal(b1-4)GlcNAc(b1-3)Gal(b1-4)GlcNAc(b1-3)Gal(b1-4)GlcNAc(b1-6)]Man(a1-6)[GlcNAc(b1-3)Gal(b1-4)GlcNAc(b1-3)Gal(b1-4)GlcNAc(b1-3)Gal(b1-4)GlcNAc(b1-3)Gal(b1-4)GlcNAc(b1-2)Man(a1-3)]Man(b1-4)GlcNAc(b1-4)[Fuc(a1-6)]GlcNAc
# Method in brief: as §1
# [15] = molecular target: GlcNAc(b1-3)Gal(b1-4)GlcNAc(b1-3)Gal(b1-4)GlcNAc(b1-3)GalNAc
# Method in brief: as §1
# [16] = molecular target: GlcNAc(b1-3)Gal(b1-4)GlcNAc(b1-3)GalNAc
# Method in brief: as §1
# [17] = molecular target: GlcNAc(b1-3)Gal(b1-4)GlcNAc(b1-3)[GlcNAc(b1-3)Gal(b1-4)GlcNAc(b1-3)]GalNAc
# Method in brief: as §1
# [18] = molecular target: GlcNAc(b1-3)Gal(b1-4)GlcNAc(b1-6)[Gal(b1-3)]GalNAc
# Method in brief: as §1
# [19] = molecular target: GlcNAc(b1-3)Gal(b1-4)GlcNAc(b1-6)[GlcNAc(b1-3)Gal(b1-3)]GalNAc
# Method in brief: as §1
# [20] = molecular target: GlcNAc(b1-3)Gal(b1-4)GlcNAc(b1-6)[GlcNAc(b1-3)]Gal(b1-4)GlcNAc
# Method in brief: as §1
# GlcNAc(b1-3)GalNAc = molecular target: GlcNAc(b1-3)GalNAc
# Method in brief: as §1
binder,measurement,setting,value
B1,glycan array binding signal (z-score),GlcNAc(b1-3)Gal(b1-4)Glc,0.466
same,glycan array binding signal (z-score),[1],0.117
same,glycan array binding signal (z-score),[2],-0.219
same,glycan array binding signal (z-score),[3],-0.209
same,glycan array binding signal (z-score),[4],-0.228
same,glycan array binding signal (z-score),[5],0.464
same,glycan array binding signal (z-score),[6],-0.098
same,glycan array binding signal (z-score),[7],-0.211
same,glycan array binding signal (z-score),[8],-0.218
same,glycan array binding signal (z-score),[9],-0.223
same,glycan array binding signal (z-score),[10],-0.217
same,glycan array binding signal (z-score),[11],-0.212
same,glycan array binding signal (z-score),[12],-0.219
same,glycan array binding signal (z-score),[13],-0.215
same,glycan array binding signal (z-score),[14],-0.209
same,glycan array binding signal (z-score),[15],-0.218
same,glycan array binding signal (z-score),[16],-0.22
same,glycan array binding signal (z-score),[17],-0.224
same,glycan array binding signal (z-score),[18],-0.216
same,glycan array binding signal (z-score),[19],-0.222
same,glycan array binding signal (z-score),[20],-0.22
same,glycan array binding signal (z-score),GlcNAc(b1-3)GalNAc,-0.286
